Measured values taken from PubChem BioAssay AID1240 (Sanford-Burnham Center for Chemical Genomics, 2008).
Where “and” joins values, the source holds several entries; their conditions need not be identical. Equal values may be shown once. Screen size: about 50,000 compounds; about 800 (1.6%) showed an effect of 50% or more. Some of the results follow.

target: Bcl-2-like protein 10 (Homo sapiens) (UniProt Q9HD36); assay: Phenotype converters, Bcl-B/TR3 peptide binding displacement, primary biochemical FP (AID 1240); conditions: GST-Bcl-B / FITC-TR3 peptide fluorescence polarization; stronger effect = higher value; compound at 3.75 mg/L;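 also: 0% = Bcl-B with tracer peptide and DMSO and 100% = tracer peptide lacking Bcl-B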
Sequence of UniProt Q9HD36 (Q9HD36 whole entry, looked up): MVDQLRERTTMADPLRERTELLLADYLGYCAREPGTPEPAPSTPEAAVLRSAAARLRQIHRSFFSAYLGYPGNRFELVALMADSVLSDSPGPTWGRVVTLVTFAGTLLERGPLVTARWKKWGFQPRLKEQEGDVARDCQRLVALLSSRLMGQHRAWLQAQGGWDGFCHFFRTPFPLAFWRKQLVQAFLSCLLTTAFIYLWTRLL

Going from `O=S1(=O)c2ccccc2-c2cc(-c3nc(C4=CNC5C=CC=CC45)[nH]c3-c3ccccc3)ccc21` (stereo unspecified) to `COc1ccc(OC)c(NC(=O)CC(c2ccccc2)c2ccccc2)c1`, the displacement rises from -37.2% to -7.9%.

Going from `COc1ccc(C(=O)Nc2ccccc2)cc1S(=O)(=O)NCc1ccccc1` to `O=C(NCc1ccc2c(c1)OCO2)C(O)(c1ccccc1)c1ccccc1`, the displacement rises from -14.9% to -3.6%.

First: COc1cc(NC(=O)c2nn3c(c2Cl)NC(c2cccs2)CC3C(F)(F)F)cc([N+](=O)[O-])c1 (stereo unspecified)
Second: CCOC(=O)c1c(NC(=O)Cc2cccs2)sc(C(=O)Nc2cc(C(F)(F)F)ccc2Cl)c1C
The displacement of the first is lower: 2.7% for the first, 7.3% for the second.

Compared with `CCC(Nc1ccccc1)C(=O)N/N=C/c1cc([N+](=O)[O-])ccc1O` (stereo unspecified), `Cc1ccc(NCC(=O)N/N=C\c2cc(Br)ccc2O)cc1` is higher in displacement: -13.2% for the first, 5.9% for the second.

Going from `COCCN1C(=O)c2cccc3cccc(c23)C1=O` to `COc1cc2c(cc1OC)C(CN1C(=O)c3ccccc3C1=O)=NC(C)(C)C2`, the displacement falls from 11.4% to 3%.

Compared with `CCc1ccccc1N1C(=O)/C(=C/c2cc(C)n(C)c2C)C(=O)NC1=S`, `C=CCN1C(=O)/C(=C\c2cc(C)n(-c3ccc(C)cc3)c2C)C(=O)NC1=S` is lower in displacement: 8.1% for the first, -6.4% for the second.

First: O=C1C=C/C(=N\S(=O)(=O)c2ccc3ccccc3c2)C=C1Br
Second: Cc1ccccc1NCC(=O)N/N=C\c1c(O)ccc2ccccc12
The displacement of the first is higher: 0.7% for the first, -8.9% for the second.

Going from `CCCNC1=C(Cl)C(=O)c2ccccc2C1=O` to `CN1C(=O)/C(=C2\SC(=S)N(Cc3ccco3)C2=O)c2ccccc21`, the displacement falls from 10% to 9.8%.

First: CC(=O)NC1C(O)CC2C3CC=C4CC(O)CCC4(C)C3CCC21C (stereo unspecified)
Second: CC1=C(C(=O)OC2CCC(C)CC2)C(c2ccccc2)NC(=O)N1 (stereo unspecified)
The displacement of the first is lower: -14.1% for the first, -6% for the second.

Going from `CCCOC(=O)c1cccc(NC(=O)/C=C/c2ccc(OC)c(Br)c2)c1` to `COc1ccc(/C=N\NC(=O)CNc2ccc(C)cc2)cc1Br`, the displacement rises from 10.9% to 19%.

First: CCOC(=O)C(CCCCCOc1c(C)cccc1C)C(=O)OCC
Second: COCCCNCCCCOc1c(C)cc(C)cc1C
The displacement of the first is higher: 16.9% for the first, 7.3% for the second.

Compared with `CCCCCC(=O)Nc1ccc(S(=O)(=O)Nc2cc(OC)nc(OC)n2)cc1`, `COc1cc(C(=O)Nc2ccc(S(=O)(=O)NC(C)=O)cc2)cc(OC)c1OC` is lower in displacement: 9.8% for the first, -4.9% for the second.

First: CC(C)(C)c1nnc(NC(=O)c2cccs2)s1
Second: CSc1nc2ccc(NC(=O)c3cccs3)cc2s1
The displacement of the first is higher: 8.7% for the first, -14.3% for the second.

Going from `O=C(CSc1nc2ccc([N+](=O)[O-])cc2[nH]1)c1ccc(F)cc1` to `O=C(COC(=O)c1cccc([N+](=O)[O-])c1)c1ccc(Br)cc1`, the displacement falls from 1.4% to -4.2%.

Going from `O=C(COc1cccc2ccccc12)NNC(=O)C1CCCO1` (stereo unspecified) to `CS(=O)(=O)N(Cc1ccc(C(=O)NCC2CCCO2)cc1)c1ccccc1` (stereo unspecified), the displacement rises from -0.3% to 13.8%.

Compared with `COc1ccc(C(=O)Nc2c(C)ccc3nsnc23)cc1Br`, `COc1ccc(OCC(=O)N/N=C/c2ccc(OC)c(Br)c2)cc1` is higher in displacement: 0.3% for the first, 2.8% for the second.

Compared with `Cc1c(C#N)c(=O)ncn1-c1ccc(Br)cc1`, `Cc1ccnc(N/C=C/C(=O)c2ccc(Br)cc2)c1` is higher in displacement: -7.9% for the first, 23.3% for the second.

Compared with `CN(C)c1ccc(C(C2=C(O)CC(C)(C)CC2=O)C2=C(O)CC(C)(C)CC2=O)cc1`, `COc1ccc(C(=O)N2N=C3CC(C)(C)OCC3C2c2ccc(OC)cc2)cc1` (stereo unspecified) is lower in displacement: 2.2% for the first, 1.7% for the second.

Compared with `O=C(CSc1nc2ccccc2[nH]1)OCc1ccccc1`, `O=C(Cc1nc2ccccc2[nH]1)NCc1ccccc1` is lower in displacement: 9.5% for the first, -10.8% for the second.

Compared with `Cc1ccc(O)c(C=Nc2c(C)nn(C)c2C)c1`, `Cc1ccc2nc(C)c3c(c2c1)OC(C)C3` (stereo unspecified) is lower in displacement: 10.6% for the first, -16.4% for the second.

Going from `CCOC(=O)Nc1sc(C)c(CC)c1C(=O)OC` to `CCOc1ccc(-c2c(C)sc(N)c2C(=O)OC)cc1`, the displacement falls from 3.7% to -5.1%.

Going from `O=[N+]([O-])c1c(N2CCCC2)ncnc1N1CCCC1` to `O=c1[nH]cnc2nc(N3CCCCC3)[nH]c12`, the displacement rises from -5.5% to 8.6%.

Going from `CCOC(=O)C1=C(C)N=c2s/c(=C\c3ccc(OC)c(O)c3)c(=O)n2C1c1cccc(OC)c1` (stereo unspecified) to `COc1cccc(/C=C2\SC(=S)N(CC(=O)NNC(=O)c3ccccc3OC)C2=O)c1`, the displacement rises from 1.7% to 9.3%.

First: O=C(O)c1cccc(C(=O)c2ccc3c(c2)C(=O)N(c2cccnc2)C3=O)c1
Second: O=C(COc1ccc(Cl)cc1)N1CCN(C(=O)c2cccnc2)CC1
The displacement of the first is lower: -10.2% for the first, 0.4% for the second.

First: CCOC(=O)c1c(NC(=O)/C=C/C(=O)O)sc2c1CCC(C(C)(C)C)C2 (stereo unspecified)
Second: CCOC(=O)c1c(NC(=O)C2CCCCC2)sc2c1CCC2
The displacement of the first is higher: 9.1% for the first, 7% for the second.

Compared with `COc1ccc(OC)c(CNc2cccc(C)c2)c1`, `CCOc1ccc2nc(SCc3ccc(OC)c(F)c3)sc2c1` is lower in displacement: 9.5% for the first, -4.7% for the second.

First: Cc1c(Cl)cccc1NC(=O)C(=O)NNS(=O)(=O)c1ccc(F)cc1
Second: CC(C)C(=O)NS(=O)(=O)c1ccc(NC(=O)c2ccc(Cl)cc2)cc1
The displacement of the first is lower: -10.7% for the first, 8.6% for the second.

Compared with `CC(CC(=O)O)C(=O)c1ccc(Cl)c([N+](=O)[O-])c1` (stereo unspecified), `O=C(Nc1cccc(Cl)c1Cl)c1ccccc1[N+](=O)[O-]` is higher in displacement: -10.1% for the first, -4.8% for the second.

First: COCCOC(=O)C1=C(C)NC(C)=C(C(=O)OCCOC)C1c1ccc(-c2cccc(Cl)c2Cl)o1
Second: CCOC(=O)c1sc(NC(=O)C(CC)c2ccccc2)c(C(N)=O)c1C (stereo unspecified)
The displacement of the first is higher: 13.7% for the first, -9.2% for the second.

Going from `Cc1nc(-c2ccccc2)nc(N/N=C/c2ccccc2[N+](=O)[O-])c1C` to `Cc1nn(-c2ccccc2)c(C)c1-c1cccc([N+](=O)[O-])c1`, the displacement rises from -10.3% to 11.6%.

First: Cc1cc(/C=c2\sc3nc4ccccc4n3c2=O)c(C)n1-c1cccc([N+](=O)[O-])c1
Second: Cc1cc(/C=N\Nc2ccc([N+](=O)[O-])cn2)c(C)n1-c1ccc(O)cc1
The displacement of the first is lower: -10.2% for the first, -0.4% for the second.

First: COc1ccc(-n2c(O)cnc2Nc2nc(C)cc(C)n2)cc1OC
Second: CCNC(=NCCc1ccc(OC)c(OC)c1)SC1CC(=O)N(c2ccccc2F)C1=O (stereo unspecified)
The displacement of the first is higher: 5.7% for the first, 0.1% for the second.

Compared with `O=[N+]([O-])c1ccc(Cl)cc1NCc1ccccc1`, `Clc1ccc(CNc2nc3ccccc3n2CCOc2ccccc2)cc1` is lower in displacement: 4.9% for the first, -6% for the second.

First: Cc1ccccc1OCC(=O)Nc1ccc(F)cc1F
Second: Cc1ccc2c(Cl)c(C(=O)Nc3ccc(Br)cc3F)sc2c1
The displacement of the first is higher: -1.5% for the first, -21.3% for the second.

Going from `COc1ccc(N(CC(=O)NCc2ccc(C)cc2)S(C)(=O)=O)cc1` to `CCc1ccc(OCC(=O)Nc2cc3nn(-c4ccc(OC)cc4)nc3cc2C)cc1`, the displacement rises from -3% to 5%.

Compared with `O=c1[nH]c2ccc(NS(=O)(=O)c3ccc(F)cc3)cc2[nH]1`, `O=C(/C=C\Nc1ccc2c(c1)OCO2)c1ccc(F)cc1` is lower in displacement: 6.1% for the first, -2.4% for the second.

First: COCCCNC(=O)c1ccccc1[N+](=O)[O-]
Second: CCOc1ccccc1OCCCCNC(C)(C)C
The displacement of the first is higher: 3.3% for the first, -11.4% for the second.

First: Cc1nn(CC(=O)NCCN2CCOCC2)c(C)c1[N+](=O)[O-]
Second: O=C(O/N=C(/c1ccc(Br)cc1)N1CCOCC1)c1ccccc1
The displacement of the first is lower: 4.9% for the first, 10.1% for the second.

Compared with `NC(=O)NC(c1ccccc1)c1ccccc1I` (stereo unspecified), `CC(/C=N/NC(=O)c1cc(-c2ccccc2)n[nH]1)=C\c1ccccc1` is lower in displacement: -2.2% for the first, -3.8% for the second.

First: Cc1cc(C)n(-c2nc(NC(C)(C)C)nc(NC(C)(C)C)n2)n1
Second: COc1cccc(/C=N/Nc2nc3nonc3nc2Nc2cccc(C)c2C)c1O
The displacement of the first is lower: 10.5% for the first, 22.3% for the second.

Compared with `O=C(COc1ccc(Br)cc1)NC12CC3CC(CC(C3)C1)C2`, `CC(C)(C)NCC(O)COc1ccc(Cl)cc1` (stereo unspecified) is higher in displacement: -5.7% for the first, 4.8% for the second.

Compared with `Cc1c(Cl)c(=O)oc2cc(OCc3ccc(Cl)cc3)ccc12`, `CCOc1cc(/C=C2/C(=O)NN(c3ccc(I)cc3)C2=O)ccc1O` is higher in displacement: 11.4% for the first, 24.7% for the second.

First: COc1ccccc1CN1CCN(C2CCCCC2)CC1
Second: CN(C)CCCNC1CCCCCCCCCCC1
The displacement of the first is lower: -14.3% for the first, 7.8% for the second.

First: O=C(CCN1C(=O)/C(=C\c2cccs2)SC1=S)Nc1nccs1
Second: CCN1C(=O)c2cccc3c(NC(=O)c4cc([N+](=O)[O-])ccc4Cl)ccc1c23
The displacement of the first is higher: 120% for the first, -1.9% for the second.

Compared with `O=C(c1ccncc1)N1N=C(c2ccncc2)CC1(O)C(F)(F)F` (stereo unspecified), `CCOC(=O)c1cnn2c(C(F)(F)F)c3c(nc12)-c1ccccc1CC3` is higher in displacement: -15.2% for the first, -3.3% for the second.

First: N#C/C(=C/c1ccc(Cl)cc1)C(=O)Nc1ccc(O)cc1
Second: CCOC(=O)c1ccc(N2NC(=O)/C(=C/c3ccc(O)cc3)C2=O)cc1
The displacement of the first is lower: 7.1% for the first, 11.1% for the second.

First: CC1=CC(C)C2COC(c3ccccc3O)C1C2 (stereo unspecified)
Second: Cc1[nH]c2ccccc2c1SCC(=O)O
The displacement of the first is lower: -14.6% for the first, 7.4% for the second.

Going from `COc1cc(C2Nc3ccccc3C(=O)N2Cc2ccccc2)cc(OC)c1OC` (stereo unspecified) to `COc1cc(/C=C2\C(=O)NC(=O)N(c3cccc(Br)c3)C2=O)cc(Cl)c1O`, the displacement falls from 13.4% to 4.4%.

Compared with `COc1cc(/C=C2/C(C)=C(C#N)c3nc(N)c(C#N)c(C)c32)c([N+](=O)[O-])cc1OC`, `CCOC(=O)c1cc2c3c(c1)C1C=CCC1C(c1ccc([N+](=O)[O-])cc1)N3CC1CC=CC21` (stereo unspecified) is lower in displacement: 11.9% for the first, 5.7% for the second.

Compared with `Cc1cccc(C)c1NC(=S)NC(=O)c1ccco1`, `CC1CCc2c(sc(NC(=O)c3cccc(Br)c3)c2C(N)=O)C1` (stereo unspecified) is lower in displacement: 14.1% for the first, -4.3% for the second.

First: O=C1NC(=Nc2cccnc2)S/C1=C/C=C/c1ccccc1
Second: NC(=O)C(Cc1ccccc1)N1CC(=O)NC(=O)C1 (stereo unspecified)
The displacement of the first is higher: 15.6% for the first, 2.2% for the second.

Going from `CC(=O)Nc1ccc2nc(-c3ccc4nc(NC(C)=O)sc4c3)[nH]c2c1` to `CC(=O)c1ccc(N2C(=O)C=CC2=O)cc1`, the displacement falls from 33% to -14.5%.

Going from `CCOC(=O)C1CCN(S(=O)(=O)c2cccc3cccnc23)CC1` to `O=[N+]([O-])c1ccc(N2CCN(S(=O)(=O)c3ccccc3)CC2)c(F)c1`, the displacement rises from -16% to 6.5%.

First: C=CCN(CP(C)(=O)OC(C)C)C(C)=O (stereo unspecified)
Second: CCN(CC)c1ccc(/C=C2\C(=O)NC(=O)N(c3ccc(Br)c(C)c3)C2=O)o1
The displacement of the first is lower: 17.3% for the first, 42.6% for the second.

Going from `O=c1[nH]c(=S)[nH]c2sc3c(c12)CCc1ccccc1-3` to `O=C(CC(c1ccccc1)c1ccccc1)N1CCN(c2ccccc2)CC1`, the displacement rises from -10.4% to -1.3%.

With `O=c1cc(-c2ccccc2)c2cc(Cl)ccc2[nH]1` the displacement was 7.9% and 7.4%.
